In PubChem BioAssay AID485364 (National Center for Advancing Translational Sciences (NCATS), 2010):
The campaign covered roughly 360,000 compounds. About 11,000 (3.1%) were called active. This list was built around the results that the source calls inconclusive (neither active nor inactive); the mix of calls is not that of the screen. Calls come from the whole dose curve; as a rule, active = well fitted inhibition curve with a large enough effect; inconclusive = small, poorly fitted or top-dose-only effect; inactive = no such curve, though single readings can be large or run the other way. No potency is given beside an inconclusive call; the fits are too rough.

The compounds below were run against Schistosoma mansoni thioredoxin glutathione reductase (TGR) (UniProt Q962Y6) (assay: qHTS Assay for the Inhibitors of Schistosoma Mansoni Peroxiredoxins). Settings: purified TGR, DTNB reduction, TNB absorbance 405 nm; activity change, negative = inhibition: at 114 µM (top of the series).
From the text: Schistosomiasis is a major neglected tropical disease that currently affects over 200 million. It is caused by different species of flatworms, such as Schistosoma mansoni. Over the last century, drugs to treat the disease have evolved from potassium antimonyl tartrate, artemisinin, oxamniquine, to praziquantel, with praziquantel remaining the universally-used single drug of choice over the past three decades. However, transmission rates have changed little with praziquantel, and there is evidence for the development of drug resistant parasites. Because there is currently no suitable alternative therapy available, there is an urgent need to identify new targets and drugs for schistosomiasis treatment. Thioredoxin glutathione reductase (TGR), one uniquely positioned S. mansoni enzyme, has been identified as a major component of the worms' distinct and compressed antioxidant "firewall". TGR is a multifunctional enzyme that catalyzes the interconversion between reduced and oxidized forms of both glutathione (GSH) and thioredoxins, thus making it an attractive new antiparasitic target. Recently, a quantitative high-throughput screen of the NIH Molecular Libraries Small Molecule Repository (MLSMR, ~71K at the time of the screen in 2007) was performed using an assay that targeted both TGR and peroxiredoxin2 (Prx2, an H2O2-reducing enzymatic component of the S. mansoni redox "firewall") by following the decrease of NADPH fluorescence. […] Additional mechanistic link between exogenous NO donation and parasitic injury for the oxadiazole-2-oxide class of compounds was also expanded and better defined. Although the screen addressed both TGR and Prx2, the assay required post-screen target deconvolution for further characterization of the actives. In addition, the fluorescence assay was also subject to fluorescence interference from compound library members. We have developed a 1536-well-based kinetic HTS assay to address TGR alone. The assay followed the reduction of 5, 5'-dithiobis (2-nitrobenzoic acid) (DTNB) (Ellman's reagent) by NADPH and measured the increase in absorbance at 412 nm of the reaction product, TNB. […] This assay format can be used to screen the current MLSMR collection (with >300K compounds available) to find novel TGR inhibitors. Furoxan is a good choice to serve as a positive control in the primary HTS assay.
Three microliters of reagents (100 uM NADPH and 20 nM TGR or 100 uM NADPH as no-enzyme control) were dispensed into 1,536-well black clear-bottomed plates. Compounds (23 nL) were transferred via Kalypsys pin tool equipped with 1536-pin array (10 nL slotted pins, V&P Scientific, San Diego, CA). The plates were then be incubated for 15 min at room temperature, and 1 uL aliquot of 500 uM NADPH were added, immediately followed by a 1 uL aliquot of 15 mM DTNB to start the reaction. The plate was transferred to a ViewLux high-throughput CCD imager (Perkin-Elmer, Wellesley, MA) where kinetic measurements of the TNB absorbance were acquired using a 405 excitation filter. Throughout the screen, reagent bottles and all liquid lines were made light-tight to minimize reagent degradation. All screening operations were performed on a fully integrated robotic system (Kalypsys, San Diego, CA) containing one RX-130 and two RX-90 anthropomorphic robotic arms (Staubli, Duncan, SC). Library plates were screened starting from the lowest and proceeding to the highest concentration, and a "double-dipping" step of the highest concentration was required to access higher concentrations of compounds. Vehicle-only plates, with DMSO being pin-transferred to the entire column 5-48 compound area, were inserted uniformly at the beginning and the end of each library in order to monitor for and record any shifts in the background, which can be affected by reagent dispensers or loss in enzyme activity overtime. […]
% is set by controls: 0 for no effect and ±100 for the full control effect; potency is the fitted concentration of half-maximal effect; tags give direction and shape of the fitted curve.
Note: nearly all actives have a fitted effect of over 60% in size.

Cc1ccc2[nH]c(=O)c(CN(Cc3ccc4c(c3)OCO4)Cc3nnnn3Cc3ccco3)cc2c1 was tested. Which Potency did it give?
Its Potency is inconclusive [inhibitor, partial curve].

O=C(Nc1ccc2oc(-c3ccccc3F)nc2c1)c1cncc(Br)c1 was tested. Which “activity change, negative = inhibition” value did it give?
Its value is inactive: -10.7%.

For CCOc1cc(CNc2ccc(O)cc2)ccc1OCc1ccc(Cl)cc1Cl, which Potency is on record?
Its Potency is inconclusive [inhibitor, partial curve].

Which Potency does the source give for Oc1ccc(CNc2ccc(C(F)(F)F)cc2Cl)c2cccnc12 here?
Its Potency is active: 1 µM.

With O=C1CSC(=Nc2ccc(Cl)cc2)N1Cc1ccco1 as the compound, how does the Potency read?
The Potency was inconclusive [inhibitor, partial curve].

With Cc1ccc(OCC(=O)Nc2cc3nn(-c4ccccc4)nc3cc2C)cc1 as the compound, how does the “activity change, negative = inhibition” value read?
Its value is inactive: 0.831%.

How did the Potency turn out when O=C(CCS(=O)(=O)c1ccccc1)NCc1ccccc1 was run?
Its Potency is inconclusive [inhibitor, single point].

For O=C(CSc1nnc2sc3ccccc3n12)c1ccco1, which Potency is on record?
Its Potency is inconclusive [inhibitor, partial curve].

O=C(c1ccc(Br)cc1)N1CCCC1 was tested. Which “activity change, negative = inhibition” value did it give?
Its value is inactive: 6.94%.

For O=C1/C(=C/c2ccco2)CCC1C1CCCC1 (centres undefined), which Potency is on record?
The Potency was active: 50.1 µM.

Which “activity change, negative = inhibition” value does the source give for Cc1ccc(NC(=O)CSc2ccc3nnc(-c4ccccn4)n3n2)cc1 here?
Its value is inactive: -6.64%.

Oc1ccc(NC(=S)Nc2ccccc2)cc1 was tested. Which Potency did it give?
Its Potency is “inactive”.

Which Potency does the source give for CCn1nnc2cc(C(=O)N(CCOC)CC(=O)Nc3cccc(C)c3C)ccc21 here?
The Potency was inconclusive [inhibitor, single point].

For CC(=O)c1cc(NC(=O)c2ccc(Cl)cc2)c(=O)oc1/C=C/N(C)C, which Potency is on record?
Its Potency is inconclusive [inhibitor, partial curve].

How did the “activity change, negative = inhibition” value turn out when Cc1ccc2c(Sc3ccc(Cl)cc3)c(C(=O)N3CCC(C)CC3)[nH]c2c1 was run?
Its value is inactive: -1.89%.

Which Potency does the source give for COc1ccc(CNS(=O)(=O)c2cnc(N)nc2)c(OC)c1 here?
The Potency was inconclusive [inhibitor, partial curve].

Which Potency does the source give for CCC(Oc1ccc(C)cc1)C(=O)Nc1ccccc1C(=O)N1CCOCC1 (centres undefined) here?
Its Potency is inconclusive [inhibitor, full curve, poor fit].

With Cc1cccc(NC(=S)NN2CCN(C)CC2)c1C as the compound, how does the Potency read?
Its Potency is inconclusive [inhibitor, partial curve].

Which Potency does the source give for Cc1c(C(c2ccc(F)cc2)c2c(C)n(C)n(-c3ccccc3)c2=O)c(=O)n(-c2ccccc2)n1C here?
The Potency was inconclusive [inhibitor, full curve, poor fit].

How did the Potency turn out when CSc1cccc(NC(=S)N2CCC(N(C)C3CCCCC3C)CC2)c1 (centres undefined) was run?
Its Potency is active: 22.4 µM.

Cc1cc(Br)cc(C)c1NC(=S)NC(=O)CC(C)C was tested. Which Potency did it give?
The Potency was inconclusive [inhibitor, full curve, poor fit].

Which Potency does the source give for CCCCCCn1c(C(C)NC(=O)c2ccco2)nc2ccccc21 (centres undefined) here?
The Potency was active: 39.8 µM.

How did the Potency turn out when CCc1ccccc1NC(=O)c1c(NC(=O)c2ccccc2)sc2c1CCCC2 was run?
Its Potency is inconclusive [inhibitor, single point].

How did the “activity change, negative = inhibition” value turn out when CCOC(=O)c1ccc(NC(=O)CN2C(=O)CSCC2=O)cc1 was run?
Its value is inactive: -9.57%.

With COc1ccc(CNC(=O)CCn2cccn2)cc1 as the compound, how does the “activity change, negative = inhibition” value read?
The value was inactive: 7.63%.

With O=S(=O)(c1ccc(NC(=S)NCc2ccncc2)cc1)N1CCCCC1 as the compound, how does the Potency read?
The Potency was inconclusive [inhibitor, partial curve].

For CCOc1ccc(C(=O)NCC(=O)OC(C)C(=O)NCc2ccco2)cc1OCC (centres undefined), which Potency is on record?
The Potency was inconclusive [inhibitor, partial curve].

For O=C(CNC(=O)c1cccc(F)c1)N/N=C/c1cc(Br)ccc1OC(=O)/C=C/c1ccco1, which Potency is on record?
The Potency was inconclusive [inhibitor, partial curve].

With Nc1cccnc1Sc1ccc(Cl)cc1 as the compound, how does the “activity change, negative = inhibition” value read?
The value was inactive: -16.1%.

How did the Potency turn out when Cc1c(Br)c([N+](=O)[O-])nn1CC(=O)NCc1cccs1 was run?
The Potency was inconclusive [inhibitor, partial curve].

With O=C(NCc1cccnc1)/C(=C/c1ccc(-c2cccc(C(F)(F)F)c2)o1)NC(=O)c1ccccc1 as the compound, how does the “activity change, negative = inhibition” value read?
Its value is inactive: 2.45%.

N#C/C(=C\c1ccc(OC(F)F)cc1)C(=O)N1CCCCC1 was tested. Which “activity change, negative = inhibition” value did it give?
Its value is inactive: 9.29%.

Which “activity change, negative = inhibition” value does the source give for O=C(Cn1cc(SCc2c(F)cccc2Cl)c2ccccc21)N1CCCCCC1 here?
Its value is inactive: 7.25%.

Cc1ccc(/C=C2/NC(=O)N(Cc3ccc(Br)cc3)C2=O)o1 was tested. Which Potency did it give?
The Potency was active: 50.1 µM.

Which “activity change, negative = inhibition” value does the source give for CNc1oc(-c2ccccc2Cl)nc1P(=O)(c1ccccc1)c1ccccc1 here?
Its value is inactive: -0.934%.

COc1ccc(CN2CCN(Cc3cc(=O)oc4cc(C)ccc34)CC2)c(OC)c1OC was tested. Which Potency did it give?
The Potency was inconclusive [inhibitor, partial curve].

How did the “activity change, negative = inhibition” value turn out when Nc1ccc(C(=O)OCCCc2nc3cc4ccccc4cc3[nH]2)cc1 was run?
The value was inactive: 5.44%.

With O=C(NC1CCCCCCC1)c1cc(COc2ccc3ncccc3c2)on1 as the compound, how does the “activity change, negative = inhibition” value read?
The value was inactive: -0.587%.

For CCCc1nc(SCC(=O)NCc2ccco2)c2c(=O)n(C)c(=O)n(C)c2n1, which Potency is on record?
Its Potency is inconclusive [inhibitor, partial curve].

With Cc1c(CNCCc2ccccc2)c(C(=O)O)c(C)n1-c1ccccc1 as the compound, how does the Potency read?
Its Potency is active: 44.7 µM.

How did the Potency turn out when O=C(c1ccc(CS(=O)(=O)Cc2ccc(Cl)cc2)o1)N1CCCC1 was run?
Its Potency is inconclusive [inhibitor, partial curve].

COc1ccc(-c2nn(-c3ccccc3)cc2/C=N/Nc2ccc3ccccc3n2)cc1OC was tested. Which “activity change, negative = inhibition” value did it give?
Its value is inactive: 5.87%.

For CC(C)CCNC(=S)Nc1ccc2nc3n(c(=O)c2c1)CCCCC3, which Potency is on record?
The Potency was inconclusive [inhibitor, partial curve].

For Fc1cccc(/C=N/Nc2nncc3ccccc23)c1, which Potency is on record?
The Potency was inconclusive [inhibitor, single point].

For O=C(NC(N1CCOCC1)C(Cl)(Cl)Cl)c1ccc(Br)cc1 (centres undefined), which Potency is on record?
Its Potency is inconclusive [inhibitor, partial curve].

CCCOc1ccc(C(O)(CCC)CCN2CCCCC2)cc1 (centres undefined) was tested. Which Potency did it give?
Its Potency is active: 31.6 µM.

For Cc1ccc(Nc2c(-c3ccco3)nc3ccccn23)cc1, which Potency is on record?
The Potency was inconclusive [inhibitor, partial curve].

How did the “activity change, negative = inhibition” value turn out when COc1ccc(C)cc1N(C)C(=O)c1c2c(nc3ccccc13)C(=O)N(C1CCCCC1)C2 was run?
Its value is inactive: -0.808%.

How did the Potency turn out when O=C(NCc1ccco1)C1CCCCN1S(=O)(=O)c1ccc(F)cc1 (centres undefined) was run?
Its Potency is inconclusive [inhibitor, full curve, poor fit].
